Experimental data taken from the supplement of paper PMC11417369.
± gives the standard deviation of the averaged measurements. This is one part of the list.

Each sequence was assayed on PfAP2-LT AP2 domain (GST-tagged) (assay: gcPBM binding intensity (ln(normalized median fluorescence intensity)); higher = stronger DNA binding).
Summary of the method: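 In this array assay, P. falciparum DNA-binding domains with a GST tag, expressed in E. coli, were applied for 1 h to primer-extended double-stranded 36-bp intergenic genomic probes and negative controls on an Agilent 4 × 180k array. Bound protein was visualised with Alexa488 anti-GST antibody at 488 nm. Binding intensity is the highest Masliner-normalised natural-log median intensity across replicate spots of either probe orientation.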

Row | Sequence | gcPBM binding intensity (ln)
1 | TAATGACAATAAAAATAAATAAATAAAAAAAAAAAA [TGCATGCA_negctrl_site321] | 8.51 ± 0.56
2 | ATATATTATCTGTACACACACATATAAGGGATTATA [CACACA_site4180] | 9.32 ± 0.33
3 | TATATACACATTTTTATACACACTTGTTTTATAAAA [CACACA_site8139] | 8.79 ± 0.45
4 | TTATGCATATATTATGCATGTAGTTTTAAATCACAT [TGCATGCA_site104] | 8.68 ± 0.35
5 | AAAAAATACATACATACACACATATTTATTTATATA [CACACA_site6554] | 9.03 ± 0.38
6 | GCACAAATATATATATATATATATATATATATATAT [GTGCAC_negctrl_site661] | 10.2 ± 0.12
7 | AAGAACCATATTTAAACACACATACCTATATAAATA [CACACA_site7553] | 9.02 ± 0.38
8 | ATAATTATATACCATGCACACAAATATTCATACAGG [CACACA_site9343] | 9.18 ± 0.45
9 | TACAATATAAAATACACACACACAAACATATATTTA [CACACA_site5941] | 9.82 ± 0.085
10 | TGCCCTAACCATACTACACACACTGCTCAAAATAGT [CACACA_site2219] | 9.42 ± 0.33
11 | TATATATATTTATAATGTACACATATATGTAAATAT [XGTACX_site3695] | 8.71 ± 0.4
12 | TATTTATAAATATGTGTGCACAATTTATTTTATAAT | 8.88 ± 0.39
13 | TTTTTTTTATATATCTGTACATATATATATATATAT [XGTACX_site8280] | 9.07 ± 0.32
14 | TTATTTCTAACATGATGTACTTTTATATTATATAAT [XGTACX_site3574] | 8.73 ± 0.51
15 | TATTTTCAAAATGTTGTACACACAAAAAAAAAAAAA [CACACA_site8437] | 8.8 ± 0.54
16 | ATATACTTTTCAATGTGTACTTATGAATATATATGT [XGTACX_site7972] | 8.81 ± 0.47
17 | ATATATATATATATATGTACATACATATTGTTTGGT [XGTACX_site2284] | 10 ± 0.4
18 | ATATAATAATATGGTTGTACATAAATAACACATGAA [XGTACX_site6592] | 8.95 ± 0.38
19 | CAAAATATTTTTTCCTGTACATAATTCCTATTTCAC [XGTACX_site3590] | 8.71 ± 0.43
20 | ATGATTATACAAAATATACACACGTGTAGACAAATA [CACACA_site1175] | 9.27 ± 0.28
21 | TAATAATAGAAACACACACACATAGACATATATATA [CACACA_site1307] | 9.85 ± 0.14
22 | CACTTAAAAAGCTAACGTACAAATACACATATATAA [XGTACX_site1851] | 8.81 ± 0.4
23 | AATATATATATAAATAATATACCTATATATTTTTTG [XGTACX_negctrl_site407] | 8.51 ± 0.44

Row | Sequence | gcPBM binding intensity (ln)
24 | AAAAACAATTTAATCACACATATATGTCACAAAGAT [CACACA_site5043] | 8.98 ± 0.48
25 | ATATTAAATATTATCACACACATAATTATTTCCATA [CACACA_site2334] | 9 ± 0.48
26 | TAATAAATTCATAATTGTACATTGAAGTATTATGCA [XGTACX_site5121] | 8.58 ± 0.38
27 | TTTTTTTATTTTGTATGTACATATCATTTGATATTC [XGTACX_site8449] | 8.98 ± 0.43
28 | TATATATATAACAGAATGCACTTTATATGTTCATAT [GTGCAC_site9880] | 8.8 ± 0.37
29 | TATACGTATACCTATACACACATATATTTATTTATA [CACACA_site6716] | 8.98 ± 0.3
30 | AAAAAATACAGACACACACACACACGCATATAAATA [CACACA_site7644] | 10.1 ± 0.25
31 | GATATCCTTATATTTGCACACACACCCAATAAAATG [CACACA_site1028] | 9.7 ± 0.17
32 | ATTATTACTATATGTGTACACATCAACTGGTTTGAT [CACACA_site5563] | 9.38 ± 0.47
33 | AGTAGCGGCGGTATCATGCACACGTATAGATTGTAA [CACACA_site1587] | 9.26 ± 0.47
34 | CCACGTATACGATGCACACGTATGCTTTATATATAG [CACACA_site4108] | 9.01 ± 0.31
35 | TTGTTTATATATATATGTACATATTTTAAGGCATCC [XGTACX_site6976] | 8.76 ± 0.47
36 | GTTGAAAAAAATATATGTACGTATATATGTATGTAT [XGTACX_site8201] | 8.96 ± 0.43
37 | ATTAAATCCGCACGCACACACACATATTAAGAAAAA [CACACA_site6062] | 9.54 ± 0.3
38 | TAATTATTTTTATATTGTACAATATGTAAATATATA [XGTACX_site592] | 8.45 ± 0.33
39 | TTTTTTGAATTTAAAAGTACAGGCTTTTACCAAATA [XGTACX_site1356] | 8.12 ± 0.46
40 | ATAAATAAATAAATCTGTACATATGTATATGTATAT [XGTACX_site4537] | 8.87 ± 0.46
41 | AATTAAAAAAAAAAAAAAAAAAAAAAATGAAAAAAA [CACACA_negctrl_site1073] | 8.4 ± 0.54
42 | AAAAAAAAAAAAAAAAGTACATACAACATTATGAAA [XGTACX_site207] | 8.63 ± 0.48
43 | ACTTAATTTTTTTTATGTACTTATTTAAAAAATTTT [XGTACX_site2712] | 8.64 ± 0.28
44 | CTTAAAGGGAAAAATACACACATATAAATATTATGT [CACACA_site2225] | 8.96 ± 0.44
45 | TTAGTAGTATTATGTAGTACATAATTATCATATCAT [XGTACX_site817] | 8.69 ± 0.47
46 | TTTGTGTATATAACAGTGCAATATTATAAATATAAA [GTGCAC_site9750] | 8.72 ± 0.4

Row | Sequence | gcPBM binding intensity (ln)
47 | ATAATCCTTGGACACACACACACACTAGTAAATAAA [CACACA_site4423] | 9.99 ± 0.3
48 | AACCCAAAATAATTATGTACATATTTTTAAATATAT [XGTACX_site6487] | 8.69 ± 0.37
49 | GCAAAGCACAAATATGCATGTAGATATAGAATAATG [TGCATGCA_site382] | 8.9 ± 0.38
50 | AAAAAAGAAAAAAAGTGTACAATATTTATTACATAT [XGTACX_site2277] | 8.71 ± 0.53
51 | TTTTTTCTTTTTATGTGTACTTATTTTATTTAATAA [XGTACX_site1080] | 8.69 ± 0.56
52 | TATATTTCATTATATTGTACAAAATATATATATTAT [XGTACX_site4644] | 8.66 ± 0.45
53 | CATTATATATATTACTAAAAATTTTACCCCTTAGCT [CACACA_negctrl_site302] | 8.61 ± 0.41
54 | ATACATGAATAAATATGTACACATATAAAAACATAT [XGTACX_site2740] | 9.12 ± 0.37
55 | ATGTATATAAATATACGTACATAAATATAAGTATAG [XGTACX_site7155] | 9.02 ± 0.35
56 | AACACGCGCAGACACACACACACACGCACATATATA [CACACA_site7104] | 10.3 ± 0.28
57 | TTTTTTTTCTTTTTTTTAAGAAATAAATAAATAATT [XGTACX_negctrl_site137] | 7.86 ± 0.55
58 | TTTTAACAAAACTAAATAATCATATATATAAGATAT [GTGCAC_negctrl_site298] | 8.37 ± 0.39
59 | CATTTCTATATAAGCACACACGTGGAATTTTTTTTT [CACACA_site5537] | 8.93 ± 0.42
60 | TCATATTATAAATAAATAAATAAATATATATATATA [CACACA_negctrl_site577] | 8.68 ± 0.23
61 | AAATCGTAATATATTTGTACTTATTTGAAAAATCCA [XGTACX_site8141] | 8.49 ± 0.37
62 | AAAAAATATATATCACGTGGTAATATATATATATAT [XGTACX_negctrl_site252] | 9.16 ± 0.14
63 | TACATCTGTATATAAACACACAACAAAAATGCTTAC [CACACA_site3814] | 8.96 ± 0.39
64 | AATATATAAATAGATACACACATACATACATACATA [CACACA_site4301] | 9.4 ± 0.27
65 | AAATTAAATCCGCACGCACACACACCGATTAATAAA [CACACA_site9321] | 9.53 ± 0.19
66 | ACACCTATAAATTAAGTGCATTTTTTTTGATGTTAT | 8.79 ± 0.48
67 | TGTAATACAGAAAAAAGTACTAAAAAGAAAAGGATT [XGTACX_site3176] | 8.89 ± 0.48
68 | TATTATATTTATTTATGTACACATATACTTAAATAA [XGTACX_site1355] | 8.61 ± 0.49
69 | TTTTTTTTTTTAATATGTACGTAAAATAAGTTTAAA [XGTACX_site6495] | 8.05 ± 0.38

Row | Sequence | gcPBM binding intensity (ln)
70 | ACATTCAATCTACTGTGTACATATTAAACTTTGAAA [XGTACX_site2913] | 8.78 ± 0.43
71 | TCCTTATAAAAATACACACAAACTTTAATTAAAACA [CACACA_site3730] | 8.73 ± 0.36
72 | ATATATATACAACAAGCATGCAGTAATTTTTTTTTT [TGCATGCA_site728] | 8.91 ± 0.36
73 | CTATAATAACATAACACACACATGTATTTATAGGTG [CACACA_site6298] | 9.21 ± 0.28
74 | AGAAGTGTAAAAGTTACACACACAAACTTGTCATTT [CACACA_site4613] | 9.38 ± 0.33
75 | CCCAGGTGCTCGTAACGTACTTACATCAAATATTAT [XGTACX_site4617] | 8.84 ± 0.3
76 | TATAAATAGATATATACACACTTGTGCAGAATATTA [CACACA_site7112] | 8.98 ± 0.38
77 | AGGCGTGAAATATACGTACACACATTATTTATATTT [CACACA_site2558] | 9.1 ± 0.39
78 | AAATAAAAAGTAAAGCGTACAAATGATCAAATAATA [XGTACX_site7898] | 9.06 ± 0.46
79 | TAATCAACAAAATCTACACACTAAAATGAAATATAA [CACACA_site3749] | 8.91 ± 0.42
80 | AAATATTTATAAATTGCACACAAATAATAACATTAT [CACACA_site8737] | 9 ± 0.45
81 | ATAATAATATATACATGTACATATATATATATATAT [XGTACX_site3455] | 9.62 ± 0.16
82 | TAACATTACTCTTAACTCTTTTGGATACCAACTTAT [XGTACX_negctrl_site82] | 8.78 ± 0.63
83 | ATAGTATCTGGTAGCTGTACGAATGGTAGAGAGTAG [XGTACX_site2548] | 9.05 ± 0.51
84 | ATATATATTCATAATACACACATTCTGTAGCATTAT [CACACA_site2067] | 9.07 ± 0.38
85 | TTAATTAAATATTATACACACAAAAAAATAATTTTA [CACACA_site96] | 8.56 ± 0.47
86 | TATATATATGTATGATGTACATATATGCATATATAT [XGTACX_site3399] | 8.82 ± 0.26
87 | AATAAAAAGATATTCTCCTTGTTCCTTTTTTTTAAA [CACACA_negctrl_site1147] | 8.33 ± 0.45
88 | AATCTATATTGACACACACACAAAAAAAAAAAAAAA [CACACA_site6739] | 9.3 ± 0.46
89 | ATTTTAACCAATTATTGTACTTGGTTATTCTTTTTT [XGTACX_site7453] | 8.94 ± 0.45
